Screen size: about 110,000 compounds; about 40 (0.04%) were called active. This list was built around the results that the source calls inconclusive (neither active nor inactive); the mix of calls is not that of the screen. Calls follow the shape of the dose curve; as a rule, active = well fitted curve in the direction sought with a large enough effect in the signal ratio (not every such curve was filed as active); inconclusive = small, poorly fitted or top-dose-only effect, or a change in a side signal; inactive = flat fitted curve, though single readings scatter; the % refers to the signal ratio. Potencies beside an inconclusive call are fits to weak or partial responses and may not hold up.
Assay: IkB Signaling;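 as to IkBa stabilization activation: 0% = basal untreated cells and 100% = reference inhibitor full response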
Conditions: ABC-DLBCL IkBa-CBG/CBR dual luciferase ratio (green luciferase fused to IkBa over red control in OCI-Ly3 lymphoma cells), 4 h; IkBa stabilization activation: at 57.1 µM (top of the series), scaled: untreated 0%, proteasome inhibitor 100% unless noted
Procedure, shortened: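 In this assay, an IκBα–CBG68 fusion accumulates when IKK-driven degradation is blocked; native CBR normalizes for cell number. OCI-Ly3 cells were treated 4 h with compound and doxycycline, then green and red light read after Chroma-Glo addition.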
Potency is read from the fitted curve at half-maximal effect.

| Compound | IkBa stabilization activation | Potency |
| --- | --- | --- |
| Cc1ccc(N2C(=O)CCSC23C(=O)N(Cc2ccc(F)cc2)c2ccccc23)cc1 (stereo not given) | inconclusive: 2.09% [signal inhibitor] | – |
| CCOc1cccc(C(=O)N(Cc2ccc(F)cc2)Cc2ccco2)c1 | inconclusive: 1.52% [signal inhibitor] | – |
| Cc1ccc(N2C(=O)CS(=O)(=O)C23C(=O)N(Cc2ccc(Cl)cc2)c2ccccc23)cc1C (stereo not given) | inconclusive: -3.56% [signal inhibitor] | – |
| COc1ccc(-n2c(Cc3cccn3C)nnc2SCC(=O)Nc2ccccc2OC)cc1 | – | inconclusive: 12.6 µM [signal inhibitor, partial curve] |
| COc1ccc(OC)c(NC(=O)Cn2c(=O)n(-c3ccc(Cl)cc3)c(=O)c3c(C)c(C)sc32)c1 | inconclusive: 3.23% [signal inhibitor] | – |
| O=C1CC(c2ccc(F)cc2F)c2cc3c(cc2N1)OCO3 (stereo not given) | inconclusive: 8.97% [signal inhibitor] | – |
| COc1ccc(C(=O)N(c2ccc(C)cc2)S(=O)(=O)c2ccc(C)cc2)cc1 | inconclusive: -0.842% [signal inhibitor] | – |
| CC1CCN(C(=O)CSc2nnc(NC(=O)Nc3ccccc3)s2)CC1 | inactive: 13.7% | – |
| COc1cc(C(=O)Nc2cc(-c3ccccc3)[nH]n2)cc(OC)c1OC | inconclusive: 2.04% [signal inhibitor] | – |
| COC(=O)c1ccccc1NC(=O)Cn1c(CCC(=O)O)ccc1-c1ccc(C)cc1 | inconclusive: -0.456% [signal inhibitor] | – |
| CCOC(=O)C1CCN(C(=O)Cn2ncc3c4ccccc4n(Cc4ccccc4)c3c2=O)CC1 | inconclusive: 4.92% [signal inhibitor] | – |
| c1cncc(-c2nccc(-n3ccnc3)n2)c1 | inactive: -1.86% [at 11.4 µM, scaled: untreated 0%, proteasome inhibitor 100%] | – |
| N#CCCS(=O)(=O)c1nnnn1-c1ccccc1 | – | inconclusive: 5.01 µM [signal inhibitor, partial curve] |
| Cc1ccc(C(=O)CC2(O)C(=O)N(Cc3ccc4c(c3)OCO4)c3ccccc32)cc1 (stereo not given) | inconclusive: 2.9% [signal inhibitor] | – |
| CCc1ccc(OCC(=O)N(C)C2CCS(=O)(=O)C2)cc1 (stereo not given) | inconclusive: 4.77% [signal inhibitor] | – |
| Cc1ccc(CNC(=O)Cn2ccn(-c3ccc(F)cc3)c(=O)c2=O)cc1 | inactive: -1.2% | – |
| CC(=O)N1CCC2(CC1)CCN(c1ccc(-c3ccccc3)cc1)CC2 | inactive: 8.19% [at 11.4 µM, scaled: untreated 0%, proteasome inhibitor 100%] | – |
| Cc1cccc(CN2C(=O)c3ccccc3S(=O)(=O)c3ccc(C(=O)NC4CCCCC4)cc32)c1 | inconclusive: 0.388% [signal inhibitor] | – |
| Cc1ccc(C)c(NS(=O)(=O)c2ccc3oc(=O)c4ncn(C)c4c3c2)c1 | inconclusive: 9.46% [signal inhibitor] | – |
| CCn1c(=O)c2sccc2n2c(CCC(=O)Nc3ccc(C(C)C)cc3)nnc12 | inconclusive: -0.687% [signal inhibitor] | – |
| COc1ccc(-c2cc(=O)c3ccccc3s2)cc1 | inactive: 6.07% | – |
| COc1ccccc1-c1nnc(SCC(=O)Nc2nc(-c3ccccc3)cs2)n1C | inconclusive: -0.147% [signal inhibitor] | – |

| Compound | IkBa stabilization activation | Potency |
| --- | --- | --- |
| Cc1ccc(CNC(=O)CCc2nc3cccnc3n2Cc2ccccc2)cc1 | inconclusive: 0.189% [signal inhibitor] | – |
| CC(=O)Nc1ccc(NC(=O)C(NS(=O)(=O)c2ccc(Br)s2)c2ccccc2)cc1 (stereo not given) | inconclusive: -4.8% [signal inhibitor] | – |
| COc1cc(NC(=O)Cn2nnnc2-c2ccccc2F)cc(OC)c1OC | inactive: 0.061% | – |
| CC(C)(C)C1CCc2onc(C(=O)NC3CCCC3)c2C1 (stereo not given) | inactive: -0.143% | – |
| COc1cc(S(=O)(=O)NC2CCCCC2)ccc1Cl | inconclusive: -1.38% [signal inhibitor] | – |
| Cc1cc(Nc2ccc(O)cc2)ccc1N | – | inconclusive: 12.6 µM [rising, partial curve] |
| O=C(CCNS(=O)(=O)c1ccc2c(c1)CCN2C(=O)C1CC1)N1CCN(c2cccc(C(F)(F)F)c2)CC1 | inconclusive: 1.31% [signal inhibitor] | – |
| COCc1oc2ccc(NS(=O)(=O)c3ccc(C)cc3)cc2c1C(=O)OC | inconclusive: 12.8% [signal inhibitor] | – |
| CCCC(=O)Nc1ccccc1C(=O)OCc1cc(=O)n2nc(C(C)C)sc2n1 | inconclusive: 2.23% [signal inhibitor] | – |
| CC(=O)c1cccc(NC(=O)Cn2cc(C(=O)c3cccc(Cl)c3)c(=O)c3ccc(C)nc32)c1 | inconclusive: 10.8% [signal inhibitor] | – |
| CCCOC(=O)c1[nH]c2c(c1C)C(=O)CC(c1cc(OC)c(OC)c(OC)c1)C2 (stereo not given) | inconclusive: 9.4% [signal inhibitor] | – |
| Cc1cc(C)cc(NC(=O)N2CCN(C(=O)c3nsc4ccccc34)CC2)c1 | inconclusive: 1.34% [signal inhibitor] | – |
| COC(=O)c1ccc(-n2c(/C=C/c3cc(OC)c(OC)c(OC)c3)nc3cc(Cl)ccc3c2=O)cc1 | inconclusive: 9.35% [signal inhibitor] | – |
| COCCn1c(SCc2ccc(C(=O)OC)o2)nc2cc(Cl)ccc2c1=O | inconclusive: 1.83% [signal inhibitor] | – |
| CCOc1ccc2c(c1)c(=O)c(S(=O)(=O)c1ccc(CC)cc1)cn2Cc1cccc(Cl)c1 | inconclusive: 3.2% [signal inhibitor] | – |
| CCCSc1ncnc2c1c(-c1ccccc1)cn2-c1ccccc1OC | inconclusive: 3.97% [signal inhibitor] | – |
| Cc1ccc(NC(=O)C2CCN(S(=O)(=O)c3cccc4cccnc34)CC2)nc1 | inconclusive: 0.461% [signal inhibitor] | – |
| COc1ccc(OC)c(NC(=O)CS(=O)(=O)Cc2nc(-c3ccc(C)cc3)oc2C)c1 | inconclusive: 3.84% [signal inhibitor] | – |
| COc1ccc(CNC(=O)c2ccc(CS(=O)(=O)c3ccc(Br)cc3)o2)cc1 | inconclusive: 1.18% [signal inhibitor] | – |
| CCCCOC(=O)c1ccc(Nc2nc3ccc(C(=O)c4ccccc4)cc3n3cnnc23)cc1 | inactive: -4.3% | – |
| CCOc1ccc(OCC)c(NC(=O)c2cc(-c3cccs3)nc3ccccc23)c1 | inconclusive: -0.497% [signal inhibitor] | – |
| O=C1CCSc2ccc(S(=O)(=O)Nc3cccc(C(F)(F)F)c3)cc2N1 | inconclusive: 4.55% [signal inhibitor] | – |

| Compound | IkBa stabilization activation | Potency |
| --- | --- | --- |
| O=c1c(N2CCN(c3cccc(Cl)c3)CC2)csc2ccc(Cl)cc12 | inconclusive: -3.03% [signal inhibitor] | – |
| CSc1ccc(C2C(C#N)=C(N)Oc3c2ccc(=O)c2c(C)oc(C)c32)cc1 (stereo not given) | inconclusive: 11.8% [signal inhibitor] | – |
| CN(C)/C=C1/Nc2ccccc2C1=O | inconclusive: 18.3% [signal inhibitor] | – |
| O=C(c1ccco1)N1CCC[C@@]2(CCN(C(c3ccccc3)c3ccccc3)C2)C1 | inactive: 3.78% [at 11.4 µM, scaled: untreated 0%, proteasome inhibitor 100%] | – |
| Cc1ccc(CNC(=O)CCCc2nnc3n(CC(C)C)c(=O)c4sccc4n23)cc1 | inactive: 1.33% | – |
| CCc1ccc2occ(CC(=O)Nc3ccc(C)c(C)c3)c2c1 | inconclusive: 6.71% [signal inhibitor] | – |
| Cc1c(C(=O)OCc2ccccc2)nnn1-c1nonc1N | inactive: -1.75% | – |
| CCOC(=O)N1CCN(Cc2nc(N)nc(Nc3ccc(Oc4ccccc4)cc3)n2)CC1 | inconclusive: 4.24% [signal inhibitor] | – |
| Cc1sc2ncn(CC(=O)N3CCN(c4ccccc4)CC3)c(=O)c2c1S(=O)(=O)N1CCC(C)CC1 | inconclusive: 9.28% [signal inhibitor] | – |
| O=C(CN1C(=O)CSc2ccc(S(=O)(=O)N3CCCC3)cc21)NCc1ccc(F)cc1Cl | inconclusive: 0.02% [signal inhibitor] | – |
| Cc1cccc(NC(=O)N2CC=C(c3c[nH]c4ccccc34)CC2)c1C | inconclusive: 2.23% [signal inhibitor] | – |
| CCN(CC)C(=O)C1CCCN(c2ncnc3c2c(-c2ccccc2)cn3-c2cccc(C)c2)C1 (stereo not given) | inconclusive: -3.19% [signal inhibitor] | – |
| c1cncc(-c2nc(N3CCCCCC3)c3ccccc3n2)c1 | inconclusive: -3.5% [signal inhibitor] | – |
| COCCOC(=O)C1=C(C)N=c2s/c(=C\c3cccs3)c(=O)n2C1c1cccs1 (stereo not given) | – | inconclusive: 6.31 µM [signal inhibitor, partial curve] |
| Cc1cc(N2CCC(C)CC2)nc2ccc(NC(=O)CCC(=O)N3CCN(c4ccccc4F)CC3)cc12 | inconclusive: 15.1% [signal inhibitor] | – |
| Cc1ccc(C)c(CNC(=O)CN2C(=O)CSc3ccc(S(=O)(=O)N(C)C)cc32)c1 | inactive: 0.375% | – |
| Cc1cc(C(=O)COC(=O)C2COc3ccccc3O2)c(C)n1CC1CCCO1 (stereo not given) | inactive: -1.28% | – |
| COc1ccc(S(=O)(=O)N(CCc2ccccc2)CC(=O)Nc2cc(C)cc(C)c2)cc1OC | inconclusive: 6.97% [signal inhibitor] | – |
| COc1ccccc1N1CCN(S(=O)(=O)CCNC(=O)C(c2ccccc2)c2ccccc2)CC1 | inconclusive: 0.76% [signal inhibitor] | – |
| Cc1ccc(C)c2[nH]c(=O)c(CN(CCN3CCCC3)C(=O)Nc3cccc(Cl)c3)cc12 | inconclusive: 0.736% [signal inhibitor] | – |
| COc1ccc(S(=O)(=O)N2CCC(C(=O)NCCc3ccc4c(c3)OCO4)CC2)cc1 | inactive: 2.76% | – |

Source: PubChem BioAssay AID445 (National Center for Advancing Translational Sciences (NCATS), 2006)
